Results published in the supplement of paper PMC10126150.
Values marked as one replicate rest on one cluster of the flow cell; about a third of the high ones do not repeat.

Tested on: ATP
Test: switch fluorescence ratio, 500 uM ATP over buffer (Cy3 cluster intensity, sum of 5 cycles each) (fold (ratio)); higher = stronger signal-on switching upon ATP binding; sequences stand for … in TCGTCGGCAGCGTCAGATGTGTATAAGAGACAGTTTTTTTTTTTTTTTTTTTTTTTTT…TC
Conditions: aptamer strand: ATP DNA aptamer (quencher-CACCTGGGGGAGTATTGCGGAGGAAGG + anchor), 100 nM annealed; ATP concentration: 500 uM; one replicate
Procedure, shortened: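 After annealing to 100 nM quencher-labelled ATP aptamer, Cy3-labelled switching-strand clusters on a modified Illumina MiSeq flow-cell were imaged in selection buffer. A second image followed after 15 min with 500 uM ATP at 22 °C, and five such buffer/ATP cycles were done, each separated by NaOH stripping and re-annealing. The fluorescence ratio, averaged per switch-domain sequence, is summed target-cycle over summed buffer-cycle Cy3 intensity per cluster, with clusters outside 100-1000 RFU excluded.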
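Further: ATP exposure 15 min at 22 °C before imaging.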

Sequence	switch fluorescence ratio
GAATACCGCA	1.49
CCTTTGGTGA	1.05
ACATTTAAAC	1.02
CGCTGTAGGA	1.01
ACGCAACTTA	1.4
TGAAGTGATT	1
GGGCGCCACG	0.987
ATAGTTTAAT	1.02
CATCTAG	0.939
TCTAGTGAG	0.993
TCGTAAGGCA	0.969
TTGACCACCC	1.06
CAGATTTCAA	1.02
GAATTATATG	1.01
TTATGTTGCA	0.992
GCACTGCTTC	1.1
ATTCCAGGTC	1.09
TAATCAAAGA	1.02
ACTTTGAAAT	1.04
CTGGATTATG	0.978
TGGTGCCTGA	0.999
TTATTGTCAG	1.07
TGATGGTGAC	1.08
ATAGGAGGTT	1
ATCTCATTAG	1.02
TCCCGAGTAT	1.01

Sequence	switch fluorescence ratio
CTGCACGTTA	1.22
CGCCCGCATT	4.28
TAGTTTAGGG	0.982
ACTAGGTTCT	1.03
TCAGATGTGC	1.03
CGTGTCAGAG	1
AAAACAGAAC	1.01
ATTAAGCTAT	1.07
TTCTTGTTAA	1.03
ATGTAGACAA	1.05
GAGGGCAAAT	1.04
GGTAAATG	1.04
AAGTGCCAAA	1.02
AATGATGGGA	1.01
AGATCGGGAT	0.963
GTAGTTACTC	1.13
GCGGAGCTTC	1.24
TGACATTCAG	1
TACAACGGTT	0.992
ACACGGACGA	1.37
AGAGACGAGT	1.06
CGCGTCGGGC	0.999
ACACTTAAC	1.13
CTGGGTTAAT	0.997
TAGCCTGGTC	1.01
TATTTATTAT	0.982

Sequence	switch fluorescence ratio
AGGAAGTTAC	1.11
TTTCAATTAG	1.02
TGAGGACTAG	1.01
ACTAGGTAGT	1.04
TAGTGCGGGG	0.974
GGACCGCTTT	1.03
ATTCAAAGGC	1.06
GTAAGAGACC	1.02
ACGTCGTGGC	1.04
AGTAAAAAC	1
AAAATCCCTG	1.02
GTACTGAGAA	1.04
GGGCTTTTCT	0.998
GATTATGTTT	1.02
GGCGGATCT	0.999
TTTTAGCTGC	1.08
AAGTACGTTT	1.17
ACTTGGTCTG	1.01
CAAGCGGAAA	0.98
TTCTAGTCGG	1.02
AGATTAAGAG	0.982
TTGTCAGGGC	0.974
GGAGTTGACT	1
GATTGGACTT	1.01
CTCCATGTTC	1.25
CCATCTGGAC	1.04

Sequence	switch fluorescence ratio
CCCCGGTCGT	1.07
GTGTTTCAAA	1.03
CGAGGGCTAT	1.15
ATGATACTGC	1.09
TCGGCCCTCA	1.02
TCTTCAGCCT	0.99
CGGTGCTTTA	1.03
TTGGAGCTCT	0.959
CTGGGTGAAG	1.01
GTGGAAACCT	1.09
AGTTGCTTGA	0.971
GGGGATACTA	1.03
ACGACCGCCA	1.67
CATTTGGCTG	1.03
CCTTCAGTAG	2.61
AAGGGCGTAA	0.993
GGCGGCTGGT	0.832
GTTCTTGAGC	1
TTCCGGACGT	1.08
GTTTGCTGAG	1.01
CCAACTCTAG	1.04
CCTATTCAGT	1.03
GCAGACTTGA	0.984
CTCGAGATTG	1.01
TACAAGGTTT	1.01
ATTACTGCT	0.944

Sequence	switch fluorescence ratio
TTAGCGTTTC	0.997
CACCCACGGG	1.4
TTTGCGAAA	1.07
GAACCGTGCT	0.967
AGCGTACCTT	1.17
GCGTATACTC	3.84
AAAAGGATAA	1.01
GACCCTCCCT	1.1
TTACAGAACA	1.09
CGGTAAGGTA	0.955
GGACTGTAAG	0.996
CACCAAATTC	2.09
GGGAGCGGCG	1.02
GTATTTCAGG	0.983
CGTTGAATAG	1.25
GGGACATGAT	0.998
CGACATGCCT	1.01
ATCATGCTGA	0.98
CTGACAAAG	1.01
AATTAATGCG	1.03
GCTGGAATAG	1.21
TTAGAAAGAC	1.17
TATGATGCTG	0.993
GGTGTCTTGG	0.976
CTCTTCAACG	1.08
TTAAGAATAA	0.998

Sequence	switch fluorescence ratio
ATTGGGCCCG	0.961
GCCCCTTAAT	0.974
AGTGTCCCCC	1.03
CCCTTAGAGT	0.997
TTTCAAGACT	1.1
TACGGCTTCG	1.09
GAAGTCGACG	1.11
ACGAGGTGTC	0.972
ACCGGATCTG	1.06
TCTTATAGT	1.02
GGTTTCGTTA	0.944
TTTGATCCTA	1.05
ATTTATAATC	0.967
TTGCTCGC	0.97
CGAAGAAAAC	1.05
TTAAGAGACT	0.98
CCGTGTGGTA	1.03
TAACGGATAT	1.03
TTCTACGCTT	3.74
GGACATTTTC	1.03
TGCAAAATTA	1.01
CCAGGCATGA	1.09
ATCAGATATA	0.951
GTCCTCTTAT	0.983
TAAACTTATG	1
GCAGGCAGTA	1.06

Sequence	switch fluorescence ratio
TCAGCACGGC	1.1
TGGGGCACCT	0.984
GAACTCTGTG	0.97
ATTTTCAGCA	1.06
CTAGTGAATA	1.03
GCAGTGGCG	1.01
TCCCAGGAGG	1.38
CTGCCCGCGA	3.39
ACGAATCGTA	1.05
GTTATTTAAG	0.981
GCCCGGGTAG	1.09
ATAATAAATA	0.991
GTAGACTTTG	1
ATAAGCGCTG	1.08
CGTATTTCTC	1.04
CGCACGGTTC	1.24
CGTCAACCCC	1.19
CTCTTGGAAC	1
GTAATCGGT	1.06
ACACTATGTT	1.04
CTTTGTCTGC	1.03
AGAGAAAGTC	1.02
TCTGAACGAT	1.05
GGGGCCTACC	1.02
ATGTCTTCTC	0.998
CGATCAGCGT	1.03

Sequence	switch fluorescence ratio
CATGAGTGAG	0.949
GTCCGAGATT	1.1
CCCTAACACC	1.1
CGGGTCCATA	1.03
AGGGCTGACT	1.01
AACAGGATTT	1
TTCGGAGATC	0.991
TGGGGTCGA	0.981
GTAGTAACTT	1.05
GAGGGGGT	0.982
GCGGCCGTCG	0.925
CGGATAGATA	0.978
CACCGTTGTT	1.03
GGATGAAAGG	1.02
CAAGGACCTA	1.03
TGCGTAAGGA	0.995
TCGCGGGCGG	0.993
CGTTGCTGCA	0.997
GACAAATTGG	0.995
